Source: patent US10344060B2 (priority 2013, dated 2019)
Like-named read-outs stand apart in the source and are kept apart here. At least one structure is not confirmed: it was looked up by name or label, or the drawing left a doubt.

Target: hNav1.7 (Homo sapiens, UniProt Q15858)
Type: cell-based
Settings: read-out: PX hNav1.7 Tonic IC50
[1] = Table 12, PatchXpress, tonic block

hNav1.7, sequence (Q15858 whole entry): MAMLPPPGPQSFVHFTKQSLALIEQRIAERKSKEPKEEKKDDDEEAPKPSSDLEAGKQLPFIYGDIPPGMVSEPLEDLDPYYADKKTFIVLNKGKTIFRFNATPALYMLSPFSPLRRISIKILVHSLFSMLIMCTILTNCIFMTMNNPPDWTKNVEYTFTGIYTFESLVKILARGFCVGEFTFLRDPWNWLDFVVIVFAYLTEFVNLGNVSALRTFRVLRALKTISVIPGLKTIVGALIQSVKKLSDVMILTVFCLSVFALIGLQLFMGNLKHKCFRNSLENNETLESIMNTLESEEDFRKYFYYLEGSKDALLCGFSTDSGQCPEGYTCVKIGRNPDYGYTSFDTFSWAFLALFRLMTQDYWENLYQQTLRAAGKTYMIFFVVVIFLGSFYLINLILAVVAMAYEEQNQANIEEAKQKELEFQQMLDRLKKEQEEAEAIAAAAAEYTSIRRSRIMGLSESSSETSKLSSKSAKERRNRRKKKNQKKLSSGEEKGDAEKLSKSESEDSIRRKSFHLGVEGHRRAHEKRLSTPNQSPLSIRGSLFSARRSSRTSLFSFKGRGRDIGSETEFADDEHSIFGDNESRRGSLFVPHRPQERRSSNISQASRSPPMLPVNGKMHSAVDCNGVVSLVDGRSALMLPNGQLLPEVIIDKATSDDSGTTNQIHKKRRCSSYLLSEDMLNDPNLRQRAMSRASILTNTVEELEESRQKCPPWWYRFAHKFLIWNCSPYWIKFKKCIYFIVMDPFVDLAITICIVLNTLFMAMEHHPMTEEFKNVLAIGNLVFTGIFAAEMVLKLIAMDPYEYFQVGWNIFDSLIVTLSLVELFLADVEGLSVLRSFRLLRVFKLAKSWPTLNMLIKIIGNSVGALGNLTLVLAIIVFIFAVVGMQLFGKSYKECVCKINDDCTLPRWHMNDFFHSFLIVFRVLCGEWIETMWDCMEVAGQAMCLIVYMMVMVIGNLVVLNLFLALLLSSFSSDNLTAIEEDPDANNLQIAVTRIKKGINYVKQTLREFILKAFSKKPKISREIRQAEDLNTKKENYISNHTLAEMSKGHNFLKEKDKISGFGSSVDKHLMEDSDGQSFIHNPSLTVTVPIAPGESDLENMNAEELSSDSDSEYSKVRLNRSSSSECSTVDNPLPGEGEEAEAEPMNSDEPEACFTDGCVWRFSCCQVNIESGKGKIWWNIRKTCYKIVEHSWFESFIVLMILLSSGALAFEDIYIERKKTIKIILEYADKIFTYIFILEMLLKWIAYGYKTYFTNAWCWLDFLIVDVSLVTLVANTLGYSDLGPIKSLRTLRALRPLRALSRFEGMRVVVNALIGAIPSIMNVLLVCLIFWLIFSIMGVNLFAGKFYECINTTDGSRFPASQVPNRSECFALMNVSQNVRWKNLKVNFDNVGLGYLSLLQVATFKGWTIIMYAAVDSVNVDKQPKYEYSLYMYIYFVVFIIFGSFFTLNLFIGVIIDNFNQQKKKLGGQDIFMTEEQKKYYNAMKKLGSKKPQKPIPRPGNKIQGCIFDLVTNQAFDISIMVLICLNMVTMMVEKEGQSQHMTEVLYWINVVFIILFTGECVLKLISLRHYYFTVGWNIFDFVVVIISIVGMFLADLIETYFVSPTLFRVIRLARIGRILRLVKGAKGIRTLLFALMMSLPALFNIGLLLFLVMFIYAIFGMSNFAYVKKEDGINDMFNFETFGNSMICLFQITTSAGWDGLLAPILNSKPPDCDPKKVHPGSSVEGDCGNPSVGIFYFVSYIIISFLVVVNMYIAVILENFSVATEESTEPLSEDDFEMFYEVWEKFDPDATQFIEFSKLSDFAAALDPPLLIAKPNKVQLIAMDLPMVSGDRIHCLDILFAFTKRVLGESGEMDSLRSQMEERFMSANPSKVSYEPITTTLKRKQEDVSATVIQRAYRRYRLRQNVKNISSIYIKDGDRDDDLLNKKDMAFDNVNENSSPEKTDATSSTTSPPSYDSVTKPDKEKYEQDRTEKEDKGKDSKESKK

| Structure (SMILES) | IC50 (PatchXpress, tonic, Table 11) [nM] | IC50 [1] [nM] | further results |
| --- | --- | --- | --- |
| CCCC[C@@H]1NC(=O)[C@H](Cc2c[nH]c3ccccc23)NC(=O)[C@H](CCCCN)NC(=O)[C@H](CCC(N)=O)NC(=O)[C@@H](NC(=O)[C@H](Cc2ccc(O)cc2)NC(=O)[C@@H](N)CC#N)CSSC[C@@H]2NC(=O)[C@@H]3CSSC[C@@H](C(=O)N[C@@H](CCCNC(=N)N)C(=O)N[C@@H](CCCCN)C(=O)N[C@H](C(=O)N[C@H](C(N)=O)[C@@H](C)CC)[C@@H](C)CC)NC(=O)[C@H](Cc4c[nH]c5ccccc45)NC(=O)[C@H](CC(C)C)NC(=O)[C@H](CCCCN)NC(=O)[C@H](CSSC[C@H](NC(=O)[C@H]([C@@H](C)O)NC(=O)[C@H](Cc4c[nH]c5ccccc45)NC1=O)C(=O)N[C@@H](CC(=O)O)C(=O)N[C@@H](CO)C(=O)N[C@@H](CCCCN)C(=O)N[C@@H](CCCNC(=N)N)C(=O)N[C@@H](C)C(=O)N3)NC(=O)[C@H](CCCCNC(=O)CCOCCOCCOCCOCCOCCOCCOCCOCCOCCOCCOCCOCCN)NC(=O)[C@H](CC(C)C)NC(=O)CNC(=O)[C@H](CCC(=O)O)NC2=O [compound 545] | 74.5 | – | – |
| CCCC[C@@H]1NC(=O)[C@H](Cc2c[nH]c3ccccc23)NC(=O)[C@H](CCCCN)NC(=O)[C@H](CCC(N)=O)NC(=O)[C@@H](NC(=O)[C@H](Cc2ccc(O)cc2)NC(=O)[C@@H](N)CC#N)CSSC[C@@H]2NC(=O)[C@@H]3CSSC[C@@H](C(=O)N[C@@H](CCCNC(=N)N)C(=O)N[C@@H](CCCCN)C(=O)N[C@@H](CCC(=O)O)C(=O)N[C@H](C(N)=O)[C@@H](C)CC)NC(=O)[C@H](Cc4c[nH]c5ccccc45)NC(=O)[C@H](CC(C)C)NC(=O)[C@H](CCCCN)NC(=O)[C@H](CSSC[C@H](NC(=O)[C@H](C(C)C)NC(=O)[C@H](Cc4c[nH]c5ccccc45)NC1=O)C(=O)N[C@@H](CC(=O)O)C(=O)N[C@@H](CO)C(=O)N[C@@H](CCCCN)C(=O)N[C@@H](CCCNC(=N)N)C(=O)N[C@@H](C)C(=O)N3)NC(=O)[C@H](CCCNC(=N)N)NC(=O)[C@H](CC(C)C)NC(=O)CNC(=O)[C@H](CCCCNC(=O)CCOCCOCCOCCOCCOCCOCCOCCOCCOCCOCCOCCOCCN)NC2=O [compound 547] | 26.6 | – | – |
| CCCC[C@@H]1NC(=O)[C@H](Cc2c[nH]c3ccccc23)NC(=O)[C@H](CCCCN)NC(=O)[C@H](CCC(N)=O)NC(=O)[C@@H](NC(=O)[C@H](Cc2ccc(O)cc2)NC(=O)[C@@H](N)CC#N)CSSC[C@@H]2NC(=O)[C@@H]3CSSC[C@@H](C(=O)N[C@@H](CCCNC(=N)N)C(=O)N[C@@H](CCCC)C(=O)N[C@@H](CCC(=O)O)C(=O)N[C@H](C(N)=O)[C@@H](C)CC)NC(=O)[C@H](Cc4c[nH]c5ccccc45)NC(=O)[C@H](CC(C)C)NC(=O)[C@H](CCCCN)NC(=O)[C@H](CSSC[C@H](NC(=O)[C@H]([C@@H](C)O)NC(=O)[C@H](Cc4c[nH]c5ccccc45)NC1=O)C(=O)N[C@@H](CC(=O)O)C(=O)N[C@@H](CO)C(=O)N[C@@H](CCCCN)C(=O)N[C@@H](CCCNC(=N)N)C(=O)N[C@@H](C)C(=O)N3)NC(=O)[C@H](CCCNC(=N)N)NC(=O)[C@H](CC(C)C)NC(=O)CNC(=O)[C@H](CCCCNC(=O)CCOCCOCCOCCOCCOCCOCCOCCOCCOCCOCCOCCOCCN)NC2=O [compound 557] | 17 | – | – |
| C#CC[C@H](N)C(=O)N[C@@H](Cc1ccc(O)cc1)C(=O)N[C@H]1CSSC[C@@H]2NC(=O)[C@@H]3CSSC[C@@H](C(=O)N[C@@H](CCCNC(=N)N)C(=O)N[C@@H](CCCCN)C(=O)N[C@@H](CCC(=O)O)C(=O)N[C@H](C(N)=O)[C@@H](C)CC)NC(=O)[C@H](Cc4c[nH]c5ccccc45)NC(=O)[C@H](CC(C)C)NC(=O)[C@H](CCCCN)NC(=O)[C@H](CSSC[C@H](NC(=O)[C@H]([C@@H](C)O)NC(=O)[C@H](CCc4ccccc4)NC(=O)[C@H](CCCC)NC(=O)[C@H](Cc4c[nH]c5ccccc45)NC(=O)[C@H](CCCCN)NC(=O)[C@H](CCC(N)=O)NC1=O)C(=O)N[C@@H](CC(=O)O)C(=O)N[C@@H](CO)C(=O)N[C@@H](CCCCN)C(=O)N[C@@H](CCCNC(=N)N)C(=O)N[C@@H](C)C(=O)N3)NC(=O)[C@H](CCCNC(=N)N)NC(=O)[C@H](CC(C)C)NC(=O)CNC(=O)[C@H](CCC(=O)O)NC2=O [compound 849] | – | > 1000 | – |
| C#CC[C@H](N)C(=O)N[C@@H](Cc1ccc(O)cc1)C(=O)N[C@H]1CSSC[C@@H]2NC(=O)[C@@H]3CSSC[C@@H](C(=O)N[C@@H](CCCNC(=N)N)C(=O)N[C@@H](CCCCN)C(=O)N[C@@H](CCC(=O)O)C(=O)N[C@H](C(N)=O)[C@@H](C)CC)NC(=O)[C@H](CCc4ccccc4)NC(=O)[C@H](CC(C)C)NC(=O)[C@H](CCCCN)NC(=O)[C@H](CSSC[C@H](NC(=O)[C@H]([C@@H](C)O)NC(=O)[C@H](Cc4c[nH]c5ccccc45)NC(=O)[C@H](CCCC)NC(=O)[C@H](Cc4c[nH]c5ccccc45)NC(=O)[C@H](CCCCN)NC(=O)[C@H](CCC(N)=O)NC1=O)C(=O)N[C@@H](CC(=O)O)C(=O)N[C@@H](CO)C(=O)N[C@@H](CCCCN)C(=O)N[C@@H](CCCNC(=N)N)C(=O)N[C@@H](C)C(=O)N3)NC(=O)[C@H](CCCNC(=N)N)NC(=O)[C@H](CC(C)C)NC(=O)CNC(=O)[C@H](CCC(=O)O)NC2=O [compound 854] | – | > 1000 | – |
| CCCC[C@@H]1NC(=O)[C@H](Cc2c[nH]c3ccccc23)NC(=O)[C@H](CCCCN)NC(=O)[C@H](CCC(N)=O)NC(=O)[C@@H](NC(=O)[C@H](Cc2ccc(O)cc2)NC(=O)[C@@H](N)CC#N)CSSC[C@@H]2NC(=O)[C@@H]3CSSC[C@@H](C(=O)N[C@@H](CCCNC(=N)N)C(=O)N[C@@H](CCCCN)C(=O)N[C@@H](CCC(=O)O)C(=O)N[C@H](C(N)=O)[C@@H](C)CC)NC(=O)[C@H](Cc4c[nH]c5ccccc45)NC(=O)[C@H](CC(C)C)NC(=O)[C@H](CCCCN)NC(=O)[C@H](CSSC[C@H](NC(=O)[C@H]([C@@H](C)O)NC(=O)[C@H](Cc4c[nH]c5ccccc45)NC1=O)C(=O)N[C@@H](CC(=O)O)C(=O)N[C@@H](CO)C(=O)N[C@@H](CCCCN)C(=O)N[C@@H](CCCNC(=N)N)C(=O)N[C@@H](C)C(=O)N3)NC(=O)[C@H](CCCNC(=N)N)NC(=O)[C@H](CC(C)C)NC(=O)CNC(=O)[C@H](Cc1cn(CCCCC(=O)NCC(=O)NCC(=O)NCC(=O)NCC(=O)N[C@@H](CO)C(=O)N[C@@H](CCCNC(=N)N)C(=O)N[C@@H](CC(C)C)C(=O)N[C@H](C(=O)N[C@@H](CCC(=O)O)C(=O)N[C@@H](CC(=O)O)C(=O)N[C@H](C(=O)N[C@H]3CSSC[C@@H](C(=O)N[C@@H](CC(C)C)C(=O)N[C@@H](Cc4c[nH]c5ccccc45)C(=O)N[C@@H](CCC(=O)O)C(=O)N[C@@H](CC(=O)O)C(=O)N[C@@H](CC(=O)O)C(N)=O)NC(=O)CNC(=O)[C@H](Cc4c[nH]c5ccccc45)NC(=O)[C@H](CCCNC(=N)N)NC(=O)[C@@H]4CCCN4C(=O)[C@H](CC(C)C)NC3=O)[C@@H](C)CC)[C@@H](C)CC)nn1)NC2=O [compound 896] | – | – | IC50: 299 nM |
